Measurements published in ChEMBL document CHEMBL4888484, “Replenishing the malaria drug discovery pipeline: Screening and hit evaluation of the MMV Hit Generation Library 1 (HGL1) against asexual blood stage Plasmodium falciparum ,using a nano luciferase reporter read-out” (2022).
About 540 (0.36%) of roughly 150,000 compounds showed an effect of 50% or more. This is one part of the list.

These molecules were tested on Plasmodium falciparum (assay: Primary screen in NF54 nanoGlo assay, in single point, at 2uM, 72h; a lower Z score goes with more inhibition). Conditions: timepoint 72 hour.
Assay type: functional, Erythrocyte
In the case of `CCN1CN(Cc2c(C)nsc2C)CC1=O`, the “% Inhibition” value is reported as 0% and the Z score is reported as -0.04. In the case of `COCCO[C@H]1CCN(C(=O)Cc2cnn(C)c2)C1`, the “% Inhibition” value is reported as -3% and the Z score is reported as 0.36. With `Cc1ccc(-c2cc(N3CCN(C(=O)c4ccccc4C(F)(F)F)CC3)ncn2)cc1` the “% Inhibition” value was -3% and the Z score was 0.52. For `O=C(Cc1cc(-c2ccccc2)on1)NCCCN1CCOCC1`, the “% Inhibition” value was -7% and the Z score was 0.85. `Cc1ccc(-n2nnc(C(=O)NCc3cccnc3)c2C)c(C)c1` was tested, and the “% Inhibition” value was -13% and the Z score was 1.37. For `Cc1nn(Cc2ccc(Cl)cc2)c(=O)n1-c1cccc(C(F)(F)F)c1`, the “% Inhibition” value was -4% and the Z score was 0.56. For `Cc1cc(NC(=O)NCCN2CCC[C@H](C(N)=O)C2)n(C2CCCC2)n1`, the “% Inhibition” value was -11% and the Z score was 1.85. `O=S(=O)(c1ccccc1)C1CC2CCC(C1)N2S(=O)(=O)C1CC1` (configuration not stated) was tested, and the “% Inhibition” value was -13% and the Z score was 1.63. For `O=C(Cc1cccc2ccccc12)N1c2ccccc2CCc2ccccc21`, the “% Inhibition” value was -2% and the Z score was 0.28. In the case of `NS(=O)(=O)N1CCN(CCC(=O)NCCc2ccccc2)CC1`, the “% Inhibition” value is reported as -10% and the Z score is reported as 1.6. For `Cc1cc(Cl)ccc1NC(=O)c1cc(CN2CCCC2)on1`, the “% Inhibition” value was -10% and the Z score was 1.57. With `CC[C@H]1CCCCN1C(=O)Cn1cccc1-c1nc(-c2ccc3c(c2)OCO3)no1` the “% Inhibition” value was 6% and the Z score was -0.94. `COC(=O)[C@]1(N(Cc2ccccc2)C(=O)Cc2ccc(F)c(F)c2)CCOC1` was tested, and the “% Inhibition” value was 0% and the Z score was 0.05. With `Fc1ccc2nc(CN3CCCc4ccccc43)cn2c1` the “% Inhibition” value was -12% and the Z score was 1.33. For `Cn1cc(C#N)cc1-c1nc(CC(N)=O)nn1-c1cccc2c1CCC2`, the “% Inhibition” value was -10% and the Z score was 1.35. In the case of `COc1ccc(-c2cn(-c3ccc(F)cc3)c(NC(=O)CN(C(=O)c3ccccc3F)C(C)C)n2)cc1`, the “% Inhibition” value is reported as 7% and the Z score is reported as -0.87. In the case of `CC[C@H](O)C1CCN(C(=O)CCc2nnc(CCCc3ccccc3)o2)CC1`, the “% Inhibition” value is reported as 5% and the Z score is reported as -0.67. `CCCCn1nc(C(C)C)nc1-c1cncnc1C` was tested, and the “% Inhibition” value was -3% and the Z score was 0.3. With `O=C(O)c1ccc(Cl)c(CN2CCC[C@H](n3cncn3)C2)c1` the “% Inhibition” value was -11% and the Z score was 2.19. In the case of `Cc1ccccc1C(=O)Nc1ccsc1-c1nnc(C2CC2)o1`, the “% Inhibition” value is reported as -8% and the Z score is reported as 0.85. With `CS(=O)(=O)CC1(Cn2cc(Br)cn2)CC1` the “% Inhibition” value was 3% and the Z score was -0.45. In the case of `CN1CCc2c(c3ccccc3n2C[C@H](O)c2ccccc2)C1`, the “% Inhibition” value is reported as -11% and the Z score is reported as 1.31. `O=C(COc1ccccn1)N1CCN(S(=O)(=O)c2ccc3ccccc3c2)CC1` was tested, and the “% Inhibition” value was -1% and the Z score was 0.22. `Cc1nc(C(F)(F)F)c(CN2CC[C@@H](N(C)CCO)[C@H]2C)s1` was tested, and the “% Inhibition” value was -8% and the Z score was 0.94. In the case of `COCCOC[C@H]1CCN(C(=O)C2(C#N)CCCC2)C1`, the “% Inhibition” value is reported as -6% and the Z score is reported as 0.8. In the case of `Cn1nc(-c2ccc(F)cc2)cc1C(=O)Nc1ccccc1Cc1nc(-c2ccco2)no1`, the “% Inhibition” value is reported as -9% and the Z score is reported as 1.76. For `O=C(c1n[nH]c2ccccc12)N1CCC(Cc2ccccc2)CC1`, the “% Inhibition” value was -3% and the Z score was 0.55. In the case of `O=S1(=O)CCc2nnc(-c3cccc(C(F)(F)F)c3)n2CC1`, the “% Inhibition” value is reported as 0% and the Z score is reported as 0. In the case of `Cc1cc2c(C)c(C(=O)N3CCOCC3)oc2c(S(=O)(=O)N2CCC(C)CC2)c1C`, the “% Inhibition” value is reported as 6% and the Z score is reported as -0.71. With `COCCNC(=O)NC(=O)CNc1c(F)cccc1F` the “% Inhibition” value was 2% and the Z score was -0.36. In the case of `COc1ccc(OC)c2c1cc(C(=O)NC[C@@H]1CCCN3CCCC[C@H]13)n2C`, the “% Inhibition” value is reported as -3% and the Z score is reported as 0.37. In the case of `CC1CC(C)CN(CC(O)COCC2CC3CCC2C3)C1` (configuration not stated), the “% Inhibition” value is reported as 6% and the Z score is reported as -0.74. With `O=C(c1cccc2ccccc12)N1C2CCC1COC2` the “% Inhibition” value was -10% and the Z score was 1.95. In the case of `O=C1N(CC2CCCCC2)CCC[C@@]1(O)CN1CCCC1`, the “% Inhibition” value is reported as 9% and the Z score is reported as -1.87. `O=C(NC1CCOCC1)N1CC[C@@](O)(c2ccccc2)[C@H]2CCCC[C@H]21` was tested, and the “% Inhibition” value was -10% and the Z score was 1.88. For `CN(C[C@H]1COc2ccccc2O1)c1nccn2cnnc12`, the “% Inhibition” value was -10% and the Z score was 1.83. `CCOc1ccccc1[C@H]1C2CCCCC2(O)CCN1C(=O)c1cc(OCC)c(OCC)c(OCC)c1` (some centres not stated) was tested, and the “% Inhibition” value was -11% and the Z score was 1.72. In the case of `CC1(C)O[C@H]2OC(C(=O)NCC(=O)Nc3ccccc3O)[C@@H]3OC(C)(C)O[C@@H]3[C@H]2O1` (some centres not stated), the “% Inhibition” value is reported as -10% and the Z score is reported as 1.28. `CCn1nc(C)c([C@H](C)NS(=O)(=O)N2CCOCC2)c1C` was tested, and the “% Inhibition” value was 6% and the Z score was -0.84. In the case of `CCOC1(C(=O)N2CCc3c(CN4CCCC4)cccc32)CCCC1`, the “% Inhibition” value is reported as 7% and the Z score is reported as -0.88. With `CC(=O)Nc1ccn2ncc(C(=O)N3CCOCC3)c2c1` the “% Inhibition” value was -5% and the Z score was 0.82.
